Laboratory results from the RNAGym collection of RNA variant scans (doi:10.7554/elife.90254).
The source gives no read counts; variants with many changes may rest on few reads.

B1: LINE1-mini (parent)
chain: GGCAGAGCUCAACACAGCGUGGCAAAGUGGCUGUGGCUAGACUGCC

Variants of: B1
Test: self-cleavage, relative activity (ratio to wild type); higher = more cleavage; in vitro, sequencing; the parent is a self-cleaving ribozyme

Q: Which self-cleavage does the source give for GGCAGAGCUCAAGUCAGCGUGGUAAAGUGGCUGUGGCUAGACUGCC [C13G A14U C23U] here?
A: 0.03

Q: Which self-cleavage does the source give for GGCAGAGCUCAAGUCAGCGUGGCAAAGAGGCUGUGGCUAGACUGCC [C13G A14U U28A] here?
A: 0.05

Q: With GGCAGAGCUCAAGACCGCGUGGCCAAGUGGCUGUGGCUAGAAUGCC [C13G A16C A24C C42A] as the variant, how does the self-cleavage read?
A: 0.03

Q: Which self-cleavage does the source give for GGCAGAGCUCAAGACCGCUUGGCAAAGUGGCUGUGGCUAGACUGCC [C13G A16C G19U] here?
A: 0.12

Q: With GGCAGAGCUCAAGACGGCGUGGCAAAGUGGCUGUGCCUAAACUGCC [C13G A16G G36C G40A] as the variant, how does the self-cleavage read?
A: 0

Q: For GGCAGAGCUCAAGACGGCGUGGCAAAGUGGCAGUGGCUAGACUGCC [C13G A16G U32A], which self-cleavage is on record?
A: 0.02

Q: Which self-cleavage does the source give for GGCAGAGCUCAAGACAGCGUGGCAGUGUGGCUCUGGCUAGAGUGCC [C13G A25G A26U G33C C42G] here?
A: 0.01

Q: Which self-cleavage does the source give for GGCAGAGCUCAAGACAGCGUGGCAGAGUGCCUGUGGUUAGACUGCC [C13G A25G G30C C37U] here?
A: 0.08

Q: With GGCAGAGCUCAAGACAGCGUGGCAACGUUUCUCUGGCUAGACUGCC [C13G A26C G29U G30U G33C] as the variant, how does the self-cleavage read?
A: 0.04

Q: For GGCAGAGCUCAAGACAGCGUGGCAACGUGUCUGUGGCUAGACUGCC [C13G A26C G30U], which self-cleavage is on record?
A: 0.05

Q: For GGCAGAGCUCAAGACAGCGUGGCAAGGUGGCUGUGGCUAGACUGUC [C13G A26G C45U], which self-cleavage is on record?
A: 0.49

Q: For GGCAGAGCUCAAGACAGCGUGGCAAUGUGGCUGUGGCUAGACUGAC [C13G A26U C45A], which self-cleavage is on record?
A: 0.18

Q: With GGCAGAGCUCAAGACAGCGUGGCAAAGUGGCUGUGGCUUGACUUCC [C13G A39U G44U] as the variant, how does the self-cleavage read?
A: 0.02

Q: With GGCAGAGCUCAAGAAUGCGUGGCAAAUUGGCUCUGGCUAGACUGCC [C13G C15A A16U G27U G33C] as the variant, how does the self-cleavage read?
A: 0.02

Q: With GGCAGAGCUCAAGAAAGCGUGGCAAGGUGGCCGUGGCUAGACUGCC [C13G C15A A26G U32C] as the variant, how does the self-cleavage read?
A: 0.04

Q: With GGCAGAGCUCAAGAAAGCGUGGCAAAGUGGCUGUGGCUAGACUUCC [C13G C15A G44U] as the variant, how does the self-cleavage read?
A: 0.04

Q: With GGCAGAGCUCAAGAAAGCGAGGCCAAGUGGCUGUGGCUAGACUGCC [C13G C15A U20A A24C] as the variant, how does the self-cleavage read?
A: 0.04

Q: With GGCAGAGCUCAAGAGUGCGUGGCAAAGUGGCUGUGGCUGGACUGCC [C13G C15G A16U A39G] as the variant, how does the self-cleavage read?
A: 0.07

Q: For GGCAGAGCUCAAGACAGAGAGGCAAAGAGGCUGUGGCUAGACUGCC [C13G C18A U20A U28A], which self-cleavage is on record?
A: 0.11

Q: For GGCAGAGCUCAAGACAGGGUCGCAAAGUGGCUGUGGCUAGACUGCC [C13G C18G G21C], which self-cleavage is on record?
A: 0.11

Q: For GGCAGAGCUCAAGACAGGGUGACAAAGUGGCUGUGGCCAGACUUCU [C13G C18G G22A U38C G44U C46U], which self-cleavage is on record?
A: 0.02

Q: For GGCAGAGCUCAAGACAGGGUGCCAAAGUGGCUGUGGGUAGACUGCC [C13G C18G G22C C37G], which self-cleavage is on record?
A: 0.02

Q: With GGCAGAGCUCAAGACAGGGUGCCAAAGUGGCUGUGUCUAGACUGCC [C13G C18G G22C G36U] as the variant, how does the self-cleavage read?
A: 0.06

Q: Which self-cleavage does the source give for GGCAGAGCUCAAGACAGGGUGGCAAAGUGACUGUGGCUUGACUGCU [C13G C18G G30A A39U C46U] here?
A: 0.02

Q: With GGCAGAGCUCAAGACAGCGUGGAAACUUGGCUGUGGCUAGACUGCC [C13G C23A A26C G27U] as the variant, how does the self-cleavage read?
A: 0.48

Q: With GGCAGAGCUCAAGACAGCGUGGAAACGUCGCUGUGGCUAUACUGCU [C13G C23A A26C G29C G40U C46U] as the variant, how does the self-cleavage read?
A: 0.02

Q: For GGCAGAGCUCAAGACAGCGUGGGAAAGUGGGUGUGGCUAGACUGCC [C13G C23G C31G], which self-cleavage is on record?
A: 0.06

Q: Which self-cleavage does the source give for GGCAGAGCUCAAGACAGCGUGGGAAAGGGGCUGUGGCUAGACCGCC [C13G C23G U28G U43C] here?
A: 0.02

Q: Which self-cleavage does the source give for GGCAGAGCUCAAGACAGCGUGGUACAGUGGUUUUUGCUAGACUGCC [C13G C23U A25C C31U G33U G35U] here?
A: 0.05

Q: With GGCAGAGCUCAAGACAGCGUGGUAAAGUGGUUGUGGCUAGACUGCC [C13G C23U C31U] as the variant, how does the self-cleavage read?
A: 0.03

Q: For GGCAGAGCUCAAGACAGCGUGGCAAAGUGGAUGUGGCUAGACUGAC [C13G C31A C45A], which self-cleavage is on record?
A: 0.03

Q: Which self-cleavage does the source give for GGCAGAGCUCAAGACAGCGUGGCAAAGUGGUUGUGGCUAGACUUCC [C13G C31U G44U] here?
A: 0.14

Q: For GGCAGAGCUCAAGACAGCGUGGCAAAGUGGCUGUGGAUAGACUGUC [C13G C37A C45U], which self-cleavage is on record?
A: 0.17

Q: For GGCAGAGCUCAAGACAGCGUGGCAAAGUGGCUGUGGCUAGAAUGCU [C13G C42A C46U], which self-cleavage is on record?
A: 0.3

Q: Which self-cleavage does the source give for GGCAGAGCUCAAGACAACGUGGCACAGUGGCCGUGGAUAGACUGCU [C13G G17A A25C U32C C37A C46U] here?
A: 0

Q: For GGCAGAGCUCAAGACACCGUGGCAUAGUGGCUGUGGCUAGACUGCA [C13G G17C A25U C46A], which self-cleavage is on record?
A: 0.03

Q: For GGCAGAGCUCAAGACACCGUGGCAAAGUGGCUGUGGCUGGACUGGC [C13G G17C A39G C45G], which self-cleavage is on record?
A: 0

Q: With GGCAGAGCUCAAGACACAGUGGCAAAGUCGCUGUGGAUAGACUGCC [C13G G17C C18A G29C C37A] as the variant, how does the self-cleavage read?
A: 0.1

Q: Which self-cleavage does the source give for GGCAGAGCUCAAGACACCCUGGCAAAGUGUCUAUGGCUAGACUGCA [C13G G17C G19C G30U G33A C46A] here?
A: 0.01

Q: For GGCAGAGCUCAAGACAUCGUGGCAAAGUGGCUGUGGCUAGACUGCA [C13G G17U C46A], which self-cleavage is on record?
A: 0.03

Q: With GGCAGAGCUCAAGACAUCGUGGCAAAGUGACUGUGGCUAGACUGCC [C13G G17U G30A] as the variant, how does the self-cleavage read?
A: 0.03

Q: With GGCAGAGCUCAAGACAGCAAGGCAAAGUGGAUGUGGCUAGACUUCC [C13G G19A U20A C31A G44U] as the variant, how does the self-cleavage read?
A: 0

Q: With GGCAGAGCUCAAGACAGCUUGGCAAAGUGGCUCUGGCUAGACUGCC [C13G G19U G33C] as the variant, how does the self-cleavage read?
A: 0.03

Q: For GGCAGAGCUCAAGACAGCUUGGCAAAGUGGCUGUGGCUAGACUACC [C13G G19U G44A], which self-cleavage is on record?
A: 0.21

Q: For GGCAGAGCUCAAGACAGCGUAGCAAACUGGCUGUGGCUAGACUGCC [C13G G21A G27C], which self-cleavage is on record?
A: 0.2

Q: With GGCAGAGCUCAAGACAGCGUAGCAAAGUGCCUGUGGCUAGAGUGCC [C13G G21A G30C C42G] as the variant, how does the self-cleavage read?
A: 0.04

Q: Which self-cleavage does the source give for GGCAGAGCUCAAGACAGCGUUGCAAAGUUGCUGUGGCUAGACUGCC [C13G G21U G29U] here?
A: 0.24

Q: With GGCAGAGCUCAAGACAGCGUUGCAAAGUGGCUCUGGCUAGACUGCC [C13G G21U G33C] as the variant, how does the self-cleavage read?
A: 0.07

Q: With GGCAGAGCUCAAGACAGCGUGACAACGUGGCUGUGGCUAGACUGCC [C13G G22A A26C] as the variant, how does the self-cleavage read?
A: 0.06

Q: With GGCAGAGCUCAAGACAGCGUGCCAAUGUGGCUGUAGCUAGACUGCC [C13G G22C A26U G35A] as the variant, how does the self-cleavage read?
A: 0.07

Q: With GGCAGAGCUCAAGACAGCGUGCCAAAGUGGCUUCGGCUAGCCUGCC [C13G G22C G33U U34C A41C] as the variant, how does the self-cleavage read?
A: 0

Q: Which self-cleavage does the source give for GGCAGAGCUCAAGACAGCGUGUGAAAGUGGCUGUGGCUAGACUGCC [C13G G22U C23G] here?
A: 0.24

Q: Which self-cleavage does the source give for GGCAGAGCUCAAGACAGCGUGUCAAAGUGGGUGUAGCUCGACUGCC [C13G G22U C31G G35A A39C] here?
A: 0.04

Q: With GGCAGAGCUCAAGACAGCGUGGCAAAAUGGCUAGGGCUAGACUGCC [C13G G27A G33A U34G] as the variant, how does the self-cleavage read?
A: 0.01

Q: For GGCAGAGCUCAAGACAGCGUGGCAAAAUGGCUUUGGCUAGACUGCC [C13G G27A G33U], which self-cleavage is on record?
A: 0.42

Q: For GGCAGAGCUCAAGACAGCGUGGCAAAAUGGCUGUGGCCAGAUUGCC [C13G G27A U38C C42U], which self-cleavage is on record?
A: 0.04
